± gives the standard deviation of the averaged measurements. This is one part of the list.
Test system: PfAP2-EXP AP2 domain (GST-tagged)
Assay: gcPBM binding intensity (ln(normalized median fluorescence intensity)); higher = stronger DNA binding
Procedure, shortened: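 Binding of GST-tagged P. falciparum DNA-binding domains, expressed in E. coli and used at about 25 μg on average, was carried out for 1 h in 1× PBS containing 1% milk, 0.2 mg/ml BSA, 0.5% salmon testes DNA and 0.03% Triton X-100. The target was an Agilent 4 × 180k array of primer-extended double-stranded 36-bp intergenic genomic probes plus negative controls, read with Alexa488 anti-GST antibody at 488 nm. Binding intensity is the highest Masliner-normalised natural-log median intensity across replicate spots of either probe orientation.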

Row | Sequence | gcPBM binding intensity (ln)
1 | TTAAATAGATAAACTAAACACACAAAAAAAAAAAAA [CACACA_site8308] | 8.38 ± 0.46
2 | TAAATACTAATATGTACACACATATAGATATAGATT [CACACA_site7247] | 8.21 ± 0.3
3 | GAATAAGATAGATATACACACCATTATAAATATAAA [CACACA_site5392] | 8.5 ± 0.51
4 | GCTAAAAGTATATGCACACACATATATATGCACATA [CACACA_site1635] | 8.87 ± 0.028
5 | TTTTGTACTTCATGCGTGCACAGAAATATATTATAT | 9.245 ± 0.078
6 | GCTTTTGTCATGTGCACACACGTATATATTATATAT [CACACA_site6146] | 9.45 ± 0.35
7 | ATTTATATTTGTATTTGTACTTATATTTATATTTAT [XGTACX_site1540] | 8.66 ± 0.47
8 | AAAAAGGTTAAGGTAGTGCATAATAAAGAATATTAA | 8.78 ± 0.28
9 | ATCATTCTTCATTTGTCACACATGATAAAAATATAT [CACACA_site4953] | 8.84 ± 0.45
10 | CTATTTTGGATGTGTACACATATATATATTTATATT [CACACA_site5706] | 8.93 ± 0.11
11 | CTATTATAATATTTTACACACCATGTAAAATATATA [CACACA_site3206] | 8.39 ± 0.38
12 | CATTAACATTTTATTACACACAATAATTTATAAGTA [CACACA_site4083] | 8.29 ± 0.38
13 | TTTTTTAAGTAATGAAATGATTTTCTTATAGAATAA [GTGCAC_negctrl_site395] | 7.84 ± 0.47
14 | ATATATATATATATATGTACATATTTCTCCATTTTT [XGTACX_site2869] | 10.1 ± 0.23
15 | GTTTTTTATAATTGTAGTACAAGAAGATATTTTTAT [XGTACX_site5443] | 8.55 ± 0.35
16 | TGCAATTGTAAAGGCGCACACATATATATATATATA [CACACA_site4894] | 10.1 ± 0.34
17 | GCATTGTCCATGCGCACACACTACTAGAATAATATG [CACACA_site5932] | 8.68 ± 0.3
18 | AAACCGTGGGAGCACACACACACACCGACACATATA [CACACA_site4338] | 8.68 ± 0.51
19 | CATATTTTTATAAATTGTACGTATATTATATATATA [XGTACX_site1816] | 8.775 ± 0.035
20 | CCATCTAAACACAACTCGAGTTGGATGTGTGAACTT [XGTACX_negctrl_site83] | 8.57 ± 0.45
21 | AATTAATGGGTACATACACACATATATACCTACATA [CACACA_site4572] | 8.38 ± 0.32
22 | ATCAAAAGAAAACACACACACATACAGATATATATA [CACACA_site5974] | 8.73 ± 0.43

Row | Sequence | gcPBM binding intensity (ln)
23 | TCCATTTATAAATTAGCATGCAATCTATGTCTGATA [TGCATGCA_site1045] | 9.09 ± 0.29
24 | ATATATCAATATAAAAGTACAAACAAAAAATAATCA [XGTACX_site7559] | 8.87 ± 0.38
25 | GATATATACTCCATCACACACCAAAAAGAAAAAAGA [CACACA_site7242] | 8.64 ± 0.58
26 | AGCAACCTGAAAAAATTACTCTTTCTTAAACAAATT [XGTACX_negctrl_site266] | 7.99 ± 0.45
27 | ATACAAGAATTAAACACACACAAAATATAAATTCTT [CACACA_site3005] | 8.71 ± 0.45
28 | CACAGACACGGACACACACACACACCCATATATATA [CACACA_site4354] | 8.78 ± 0.31
29 | TTAAGGATTAAGGTGTGTACATATAAATATTATATA [XGTACX_site7532] | 8.51 ± 0.31
30 | ACCTGTAAAAATGTTTATATATATATATATATATAT [CACACA_negctrl_site1500] | 10.3 ± 0.37
31 | TGTTTATTCTTTAAATATTATTCAAATACTACAAGT [CACACA_negctrl_site746] | 8.16 ± 0.4
32 | AAAAAAAAAAAAAATTGTACATAATAAAAATATGGA [XGTACX_site3189] | 8.4 ± 0.46
33 | TATATATATAAGTGCACACTGAACCAAGAAAATTAT [CACACA_site3008] | 9.26 ± 0.28
34 | CGGCACATTATATATACACACATATAAATAAATACA [CACACA_site4477] | 8.6 ± 0.38
35 | GGATTGATAAGTGGTACACACATATAGATTATAGAT [CACACA_site7367] | 8.76 ± 0.4
36 | ATTTATATAAAGAATGTACACACAGAAATGCACCCA [CACACA_site8715] | 9.2 ± 0.2
37 | AATATTAAATGAAAAAGTACAAACAGTCCTATATTA [XGTACX_site1926] | 8.23 ± 0.2
38 | AAAAAAAAAAAACATACACACAAATAAATACATACA [CACACA_site6073] | 8.61 ± 0.63
39 | TAAATATATATATGTGTGCACTTCTTCATTTTAATA [GTGCAC_site9537] | 9.09 ± 0.26
40 | CGTATGCACAAATTATGTACTTATATATATATATAT [XGTACX_site2348] | 10.1 ± 0.36
41 | TATTCGAAAATTATTCAAATTATCTAACATATTATT [TGCATGCA_negctrl_site70] | 8.09 ± 0.4
42 | AAAAATAAAATAATATGTACATATATAATATATATA [XGTACX_site4786] | 8.67 ± 0.13
43 | AATTGGAAACAACCAAAAAAATTAAAGTTGTATCCT [CACACA_negctrl_site565] | 8.23 ± 0.37
44 | TAATTTTTTAGACACACACACATATAAATATAAATA [CACACA_site6195] | 8.74 ± 0.3

Reference: the supplement of paper PMC11417369
